# Results reported in paper PMC4336329 (PLoS ONE, 2015).
# Among all 310,000 compounds or so, about 14,000 (4.5%) showed an effect of 50% or more. The effect is printed as a negative number. The list shows a part of the results.
# Target: human ether-à-go-go-related gene (hERG) potassium channel (human, UniProt Q12809)
# Experiment: primary screen, population patch clamp on CHO cells stably expressing hERG
# 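Note: peak tail current of the secondary pulse compared with the same well before compound.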
# Sequence of human ether-à-go-go-related gene (hERG) potassium channel (Q12809 whole entry, looked up): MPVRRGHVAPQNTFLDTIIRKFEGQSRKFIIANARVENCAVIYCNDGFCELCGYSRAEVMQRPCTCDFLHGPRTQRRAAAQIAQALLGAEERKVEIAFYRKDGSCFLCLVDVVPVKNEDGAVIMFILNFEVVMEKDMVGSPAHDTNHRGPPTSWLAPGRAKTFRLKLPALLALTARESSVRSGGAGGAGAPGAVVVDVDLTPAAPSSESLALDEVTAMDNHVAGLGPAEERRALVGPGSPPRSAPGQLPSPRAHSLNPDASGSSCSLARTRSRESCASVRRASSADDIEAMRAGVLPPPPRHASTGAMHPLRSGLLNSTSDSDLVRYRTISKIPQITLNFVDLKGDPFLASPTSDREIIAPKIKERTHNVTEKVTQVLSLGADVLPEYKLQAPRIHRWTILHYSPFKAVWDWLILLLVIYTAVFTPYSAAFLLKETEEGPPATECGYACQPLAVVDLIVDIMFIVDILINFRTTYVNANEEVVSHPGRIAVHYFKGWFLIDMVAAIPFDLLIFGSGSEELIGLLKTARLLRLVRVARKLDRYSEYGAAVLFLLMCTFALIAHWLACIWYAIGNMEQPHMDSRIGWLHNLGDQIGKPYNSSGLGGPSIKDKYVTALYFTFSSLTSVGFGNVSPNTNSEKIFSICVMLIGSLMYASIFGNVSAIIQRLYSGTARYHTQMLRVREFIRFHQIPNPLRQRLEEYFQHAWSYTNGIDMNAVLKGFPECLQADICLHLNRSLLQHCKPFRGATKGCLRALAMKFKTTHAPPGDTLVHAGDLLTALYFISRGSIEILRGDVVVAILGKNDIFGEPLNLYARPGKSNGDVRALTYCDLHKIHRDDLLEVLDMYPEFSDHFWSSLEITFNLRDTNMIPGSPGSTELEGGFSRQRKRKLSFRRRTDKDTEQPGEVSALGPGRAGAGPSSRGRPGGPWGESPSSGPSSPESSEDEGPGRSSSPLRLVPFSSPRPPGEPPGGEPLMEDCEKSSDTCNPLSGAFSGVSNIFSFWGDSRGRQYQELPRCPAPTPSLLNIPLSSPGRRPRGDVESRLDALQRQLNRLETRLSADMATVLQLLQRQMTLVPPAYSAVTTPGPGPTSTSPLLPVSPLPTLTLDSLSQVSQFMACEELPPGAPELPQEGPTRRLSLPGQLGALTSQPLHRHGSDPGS
row,SMILES,"hERG current change (%, negative = inhibition) at 10uM [%]"
1,COCCCNC(=O)c1cn(Cc2c(F)cccc2Cl)nn1,-3.65
2,CCOc1ncc(S(=O)(=O)N2CCN(CC)CC2)cc1C(=O)O,26.4
3,CCOc1ccc(NC(=O)Cn2nc(C(N)=O)c3ccccc3c2=O)cc1S(=O)(=O)N1CCCC1,0.537
4,CCOC(=O)c1ccc2[nH]c(C)c(CCC(C)=O)c(=O)c2c1,10.7
5,CCc1cccc(NC(=O)C2CCCN(S(=O)(=O)c3cccs3)C2)c1 (stereo not drawn),-7.62
6,Cc1ccc(N2CC(NC(=O)C(=O)c3c(C)[nH]c4ccccc34)CC2=O)cc1C (stereo not drawn),-10.1
7,N#Cc1nc(COc2cccc(Cl)c2)oc1N1CCCC1,-47.5
8,O=c1c2cc(NC(=S)N3CCCCCC3)ccc2nc2n1CCCCC2,-43.9
9,COc1cc(CN2CCCCCC2)cc(OC)c1,5.09
10,COC(=O)C1=C(C)N(Cc2ccccc2)C(=NCCCCO)N[C@H]1c1ccccc1,-53.2
11,CCCCCCNC(=O)N[C@H](Cc1ccc(O)cc1)C(=O)NCCC[C@H]1CN2C(=NC[C@H]2CCC)N1CC1CCC1,9.27
12,Cc1ccc(S(=O)(=O)NC(N)=NCCc2ccc(Cl)cc2)cc1,8.52
13,COC(=O)c1sc(NC(=O)CSc2n[nH]c(N)n2)c(C(=O)OC)c1C,15.1
14,Fc1ccc(Cl)cc1/C=N/n1cnnc1SCc1ccccc1,12.1
15,O=C(O)/C(=C\c1ccco1)NC(=O)c1ccco1,15.8
16,O=C1NCCN1CCNS(=O)(=O)c1ccc(F)cc1,5.47
17,S=C(Nc1ccc(Oc2ccccc2)cc1)NC1CCCC1,6.91
18,CC(=O)OCC1=C[C@@H]2OC(=O)C3=CO[C@@H](O[C@@H]4O[C@H](CO)[C@@H](O)[C@H](O)[C@H]4O)[C@H]1[C@@H]32,3.61
19,CCN(C(=O)C(=O)c1c[nH]c2ccccc12)c1ccccc1,11
20,CC(=O)Nc1ccc(S(=O)(=O)NCC(=O)OCC(=O)c2cc(C)n(-c3ccc4c(c3)OCO4)c2C)cc1,-0.381
21,CCCC(C(=O)NC(C)(C)C)N(C(=O)c1snc(C(N)=O)c1N)c1ccc2c(c1)OCCO2 (stereo not drawn),2.73
22,CSc1nc(N)n2nc(C(C)(C)C)cc2n1,-2.4
23,CC(C)(C)c1ccc(-c2noc(-c3ccno3)n2)cc1,17.9
24,Cc1nonc1NC(=O)CSc1nc2ccccc2[nH]1,9.42
